The values that follow come from PubChem BioAssay AID1963576 (National Center for Advancing Translational Sciences (NCATS), 2024).

In all, about 46,000 compounds went through this assay and about 60 (0.1%) were called active. Another 3% or so got no clear call; they are omitted. Calls come from the whole dose curve; as a rule, active = well fitted inhibition curve with a large enough effect; inconclusive = small, poorly fitted or top-dose-only effect; inactive = no such curve, though single readings can be large or run the other way. The list shows a part of the results.

The nature of this experiment: Primary qHTS assay for Inhibitors of ovarian cancer metastasis using an organotypic tumor microenvironment (TME) model.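 For activity change, negative = inhibition: plate controls were DMSO wells for no effect and tomatine positive control wells for full effect.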 Note: nearly all actives have a fitted effect of over 65% in size. The note with it: SKOV3ip1-GFP adhesion/invasion on 3D omental model, fluorescence; series mostly up to 45.8 µM; activity change, negative = inhibition: at the top concentration. The method in brief: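 Primary human omental fibroblast/mesothelial 3D culture pre-formed 48 h. SKOV3ip1-GFP cells added with compounds (0.36-46 umol/L), incubated 2 h RT/16 h 37 C, fixed; GFP cells quantified at 488/509 nm.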
For the compound `Cc1cccc(N2CCN(C(=O)Cn3c(=O)c4cccn4c4ccc(F)cc43)CC2C)c1` (stereo not given), the outcome was inactive.

Take `CCc1ccccc1NC(=O)CSc1nnc(-c2cc(OC)c(OC)c(OC)c2)o1`: the “activity change, negative = inhibition” value is inactive: 2.31%.

For `CC(=O)Nc1cc(C(=O)NCc2ccccc2)ccc1Sc1ccc(C)cc1`, the “activity change, negative = inhibition” value was inactive: 4.96%.

`Cc1ccc(N2CC(c3nnc(Cc4ccc(Cl)cc4)o3)CC2=O)cc1` (stereo not given): the “activity change, negative = inhibition” value is inactive: -10.8%.

Regarding `CNS(=O)(=O)c1cn(CC(=O)Nc2ccc(F)cc2F)cc1S(=O)(=O)NC`, the “activity change, negative = inhibition” value is inactive: -1.25%.

With `CCCCNc1sc(S(=O)(=O)CC)nc1S(=O)(=O)c1ccc(C)cc1`, the “activity change, negative = inhibition” value is inactive: 1.33%.

Regarding `CN(C(=O)CSc1cn(CC(=O)N2CCCCCC2)c2ccccc12)c1ccccc1`, the “activity change, negative = inhibition” value is inactive: 4%.

As to `O=C(NC1CCCCC1)c1ccc(Cn2c(SCc3cccc(F)c3)nc3cccnc32)cc1`, the “activity change, negative = inhibition” value was inactive: -16.1%.

For the compound `COc1ccc(N2CCN(CC(O)COc3ccccc3C(C)(C)C)CC2)cc1` (stereo not given), the compound was classed as inactive.

Turning to `CCN(c1ccc(OC)cc1)S(=O)(=O)c1c(C(=O)N2CCCCCC2)c(C)n(C)c1C`, the “activity change, negative = inhibition” value was inactive: -1.33%.

Regarding `Cc1ccc(CNC(=O)C(C(C)C)N2Cc3ccccc3C2=O)cc1` (stereo not given), the compound was classed as inactive.

Consider `CO[C@H]1C[C@@H]2CC[C@@H](C)[C@@](O)(O2)C(=O)C(=O)N2CCCC[C@@H]2C(=O)O[C@H]([C@H](C)C[C@@H]2CC[C@H](OC(=O)C(C)(CO)CO)[C@H](OC)C2)CC(=O)[C@H](C)C=C(C)[C@@H](O)[C@@H](OC)C(=O)[C@H](C)C[C@H](C)C=CC=CC=C1C`, for which the “activity change, negative = inhibition” value is inactive: 0.0515%.

`Cc1cccc(C(=O)Nc2ccc(-c3nc4ccccc4s3)c(C)c2)c1`: the “activity change, negative = inhibition” value is inactive: -9.2%.

For the compound `CCOc1ccc(OCC)c(NC(=O)c2cc(C)nc3c2c(C)nn3-c2cccc(Cl)c2C)c1`, the “activity change, negative = inhibition” value is inactive: -8.95%.

In the case of `Cc1nn(-c2ccccc2)c(OC(=O)c2ccc(Br)cc2)c1S(=O)(=O)c1ccccc1`, the result was inactive.

Turning to `Cc1ccc(CC(=O)N(Cc2nc(-c3ccc(C)cc3)no2)C(C)C)cc1`, the “activity change, negative = inhibition” value is inactive: 25.2%.

As to `Cc1ccc(C)c(N2CCN(C(=O)c3cccc(-n4c(C)nc5cccnc54)c3)CC2)c1`, the “activity change, negative = inhibition” value is inactive: -1.93%.

`O=C(CCc1nc(-c2ccccc2F)no1)Nc1cccc(C(F)(F)F)c1`: the “activity change, negative = inhibition” value is inactive: 4.8%.

Take `CCc1ccc(NC(=O)CSC2=Nc3ccccc3C3=NC(CCC(=O)NCc4ccccc4OC)C(=O)N23)cc1` (stereo not given): the “activity change, negative = inhibition” value was inactive: 18.9%.

Take `CCOc1ccc(NC(=O)Cn2c(=O)n(CCc3ccccc3)c(=O)c3c4c(sc32)CN(C(C)=O)CC4)cc1`: the compound was called inactive.

Consider `CCOCCCNC(=O)c1cnc2sc(N3CCCCCC3)nn2c1=O`, for which the “activity change, negative = inhibition” value is inactive: -1.03%.

Consider `O=C(COc1ccc(Cl)cc1)Nc1cc(-c2ccccc2)no1`, for which the “activity change, negative = inhibition” value was inactive: 4.28%.

In the case of `C[C@@H]1C[C@H]2[C@@H]3CCC4=CC(=O)C=C[C@]4(C)[C@@]3(F)[C@@H](O)C[C@]2(C)[C@@]1(O)C(=O)CO`, the “activity change, negative = inhibition” value is inactive: 13.1%.

Consider `COc1ccc(OC)c(NC(=O)CN2C(=O)CC(c3ccco3)Sc3ccccc32)c1` (stereo not given), for which the “activity change, negative = inhibition” value is inactive: -26.1%.

Consider `COc1ccc2c(c1)c1c(c(=O)n(-c3ccccc3C)c(=O)n1Cc1ccccc1C)n2C`, for which the “activity change, negative = inhibition” value was inactive: -16.1%.

Take `COCCCNc1ncnc2c1c(-c1ccccc1)cn2-c1ccc(C)c(Cl)c1`: the “activity change, negative = inhibition” value is inactive: 7.41%.

Consider `Cc1cc2nn(-c3ccc(Cl)cc3)nc2cc1NC(=O)C(C)C`, for which the call was inactive.

With `CCn1c(CN2CCN(c3cccc(Cl)c3)CC2)nc2c1c(=O)[nH]c(=O)n2C`, the “activity change, negative = inhibition” value is inactive: -5.85%.

As to `Cn1c(=O)c2sccc2n2c(CCCC(=O)Nc3ccc(F)cc3F)nnc12`, the “activity change, negative = inhibition” value was inactive: 6.74%.

Take `CCCCN(CC)C(=O)Cn1c(=O)n(-c2ccc(OCC)cc2)c(=O)c2c3c(sc21)CCC3`: the “activity change, negative = inhibition” value is inactive: 0.387%.

As for `O=C(c1ccc2c(c1)OCO2)c1cn(Cc2ccc(F)cc2)c2ccccc2c1=O`, the “activity change, negative = inhibition” value is inactive: -2.22%.

As to `CCCCOc1ccc(CNC(=O)Cn2ncn3c(cc4cc(F)ccc43)c2=O)cc1`, the “activity change, negative = inhibition” value was inactive: -6.57%.

As for `Cn1nc(C(=O)N2CCN(c3ccccc3)CC2)c2c1-c1ccccc1SC2`, the “activity change, negative = inhibition” value is inactive: -8.35%.

As for `COc1ccc(CNC(=O)c2cc3ccccn3n2)c(OC)c1`, the “activity change, negative = inhibition” value was inactive: -14.9%.

With `COc1cc(OC)c(C2C=C(C(=O)O)Nc3ncnn32)cc1OC` (stereo not given), the “activity change, negative = inhibition” value is inactive: -24.7%.

As to `Cc1ccc(C2CCN(C(=O)c3cnn(-c4ccccc4Cl)c3C3CCN(C(=O)OC(C)(C)C)CC3)C2)cc1` (stereo not given), the “activity change, negative = inhibition” value is inactive: -19.7%.

On to `CC(=O)c1cccc(-n2c(=O)c3c4c(sc3n(Cc3ccccc3Cl)c2=O)CN(C(C)=O)CC4)c1`, for which the compound was called inactive.

Consider `CCCOC(=O)c1c(NC(=O)c2nc3ncccn3n2)sc(C(=O)OCC)c1C`, for which the “activity change, negative = inhibition” value was inactive: 2.77%.

For `Cc1c(F)cccc1NC(=O)C1CCCN1S(=O)(=O)c1ccc(F)cc1` (stereo not given), the result was inactive.

Consider `COc1ccccc1CNC(=O)c1cn(C)c2ccc(S(=O)(=O)N3CCC(C)CC3)cc2c1=O`, for which the “activity change, negative = inhibition” value is inactive: -6.24%.

Take `NC(=NCCCCCCN=C(N)N=C(N)Nc1ccc(Cl)cc1)N=C(N)Nc1ccc(Cl)cc1`: the “activity change, negative = inhibition” value is inactive: -9.36%.

Turning to `COc1cc(OC)c(NC(=O)c2ccc3nc(C(C)C)oc3c2)cc1Cl`, the result was inactive.

With `Cc1ccc(NC(=O)C2CCCN(S(=O)(=O)c3cccc4cccnc34)C2)cc1Cl` (stereo not given), the “activity change, negative = inhibition” value is inactive: -1.39%.

`Cc1ccc(C(=O)Nc2cccc(C(=O)OCc3cc(=O)n4c5c(sc4n3)CCCC5)c2)cc1`: the “activity change, negative = inhibition” value was inactive: -57.6%.

Take `O=C(CN1Cc2ccccc2C1=O)Nc1cc(F)ccc1F`: the “activity change, negative = inhibition” value was inactive: -0.211%.
